Data: the supplement of paper PMC3334620
Over roughly 33,000 sequences, “E-score (-0.5 to 0.5)” has its median near -0.054; the highest 2% begin near 0.39. The list shows a part of the results.

Biological target: Ylr278c (UniProt Q05854)
Test: PBM E-score (8-mer binding enrichment) (E-score (-0.5 to 0.5)); higher = stronger / more preferred TF binding; most listed sequences are background and not binding sites
Conditions: protein concentration: 200 nM; construct: GST-DNA-binding domain
Experimental: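 Universal 'all 10-mer' protein binding microarrays (Agilent AMADID 015681) probed with GST-tagged S. cerevisiae TFs (full-length or DBD) made by in vitro transcription/translation (PURExpress), about 100-200 nM. Bound TF was detected with fluorescent anti-GST. Each ungapped 8-mer (which stands for itself and its reverse complement) is scored by the PBM enrichment score (E-score), a modified Wilcoxon-Mann-Whitney statistic from -0.5 to +0.5, computed with the Universal PBM Analysis Suite. Scale: above 0.35 generally sequence-specific binding.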

Sequence	PBM E-score
AGCACCCA	-0.0915
ATACGAAC	-0.0868
GAGGGGGA	-0.223
ACTGATCG	-0.184
GCCTGGGA	-0.0565
AAACTACA	-0.0133
CATCGAAC	-0.114
ACGGCAGA	0.154
ATCATGTG	-0.0918
AACTTAGT	-0.0604
ATAATGCG	0.12
GGCTCCCC	0.0257
CGGGATAC	0.331
AATGAGAA	-0.14
CCTGTACC	-0.152
CCGACAAC	0.199
ACCCACCT	-0.117
AGTCGAAT	-0.141
AGGTGGGC	-0.141
AACCGTTC	0.145
CCTGTCAC	-0.0802
TATAACAA	-0.0224
ATTTCGTC	-0.103
CCCGAGGG	0.171
GTGAAGTA	-0.0107

Sequence	PBM E-score
ATTGCACA	-0.136
CGCACGAC	-0.0202
CGGGGAGC	0.242
GAGAAGTA	-0.0218
CGTCACAG	-0.105
ACGCACAC	-0.0458
AGTGTGAT	-0.19
ATAAGCGA	0.0471
AATAGGTC	-0.116
ACCGATTA	0.269
CCTCCGAA	0.441
GAACAGGC	-0.0853
AATAGCGA	-0.0184
AAACCACT	-0.129
GCCCGGAC	0.406
CTGATTGA	-0.255
ACTCGCTA	0.0791
AATACCTG	-0.107
GCACTTCC	0.00163
ATTCCCAC	-0.0578
AATGAGGC	-0.113
GCAATCAC	0.132
TAGGCAAA	-0.158
AAAGGCGG	0.176
ACATTTAA	0.0447

Sequence	PBM E-score
ATGTACGC	-0.288
GCCCGCAC	0.282
ACGATATG	-0.0566
GCACGGTA	-0.0539
CTGACTCC	0.143
CTCTTAAC	-0.21
ACGAGAAC	-0.0656
TATCAAGA	-0.135
AACGCTTG	-0.0781
ACCTGATC	-0.177
TGTATAAA	-0.0868
AAACCCTC	-0.0128
ACAGAACC	-0.16
TACTATAA	-0.12
CAGCAACC	-0.0809
AACGATGA	0.0509
GTTTACGA	-0.238
ACCCATAT	-0.17
ACTCGGAG	0.428
CCGCTCCG	0.444
CAGGCGCG	-0.0797
CGAGAGCG	0.126
AATGCGCG	0.313
GTGGTAGA	-0.156
CTCGCGCA	0.0619

Sequence	PBM E-score
ACACGCCT	-0.257
ATCTGCTA	-0.318
ACGTTGAC	-0.18
CAAGGCGG	0.135
AGAAGCTA	0.0166
ATACCCAA	-0.0949
AATGGCAC	-0.0289
GTCCCCAA	-0.0362
GCAGGTAA	0.116
CCGTCGAC	0.0989
GCTGATAC	0.0102
CCCCAGGA	-0.196
AATGACCG	0.218
ACCGGTGG	0.192
CCACAGAC	-0.243
GGACTCAC	0.00149
CGACCCCC	-0.0599
GAGGTCAC	-0.0534
ACGAAAGC	-0.149
ATGAACCG	-0.127
ACCTTAAG	-0.111
CCCCGAAA	0.368
AATCGTCG	0.0365
TAATCACA	-0.259
ATGCCCAA	-0.226

Sequence	PBM E-score
ACGCGATC	0.0734
CGAGGACA	0.0478
AGTCTGAT	-0.265
GAGACACC	-0.068
GGCTTCAC	0.0279
GCCGATGA	0.298
CATATAGA	-0.161
ATCTGGTG	-0.0676
CTAAACGA	0.0243
CTTCTCGA	-0.194
AAGTGTGT	-0.353
GGAAAGGA	0.185
GACCTAAC	0.0677
AACGCCGG	0.424
CGTCTATA	0.0143
ACAGTAGT	-0.234
GCGTAGAA	0.0122
CACGACCC	-0.0645
ACTGTGTG	-0.101
AACCTAGT	-0.00542
ATTTTTAC	-0.121
ATGTTGTA	-0.152
AGCTGCTG	-0.129
CCGTCAGA	0.0483
CCGCCGGC	0.41

Sequence	PBM E-score
CTTTCCCC	0.145
ACTGAAAC	0.076
ACACAAAA	0.0216
CACACTTA	-0.0264
GAGGAGTA	0.0495
GCAACGTA	-0.238
AGTGGCTG	0.00045
AGGCCTGA	-0.0412
ATCGAATG	-0.0617
CTATGTAA	-0.188
CGATCCAA	-0.115
AGCACTAT	-0.279
CTAAAAGA	-0.283
AATAACGC	-0.111
ACAACATC	-0.0181
TATATTGA	0.0547
ATCCGATC	0.37
GCTTATCA	-0.178
AGTCTATC	-0.212
CCCTTAAG	-0.108
GGTGAACC	-0.0108
CTCGTGGC	-0.0535
CCCCGATA	0.35
AACGGCCT	0.0425
CCTAAGTA	-0.157

Sequence	PBM E-score
AGTTAGAA	0.0496
CCGGTGTA	0.365
ACTCGTAC	-0.127
GGCTAACA	-0.013
ATACCGAC	0.0682
CCAACTGG	-0.22
ATTAACTA	-0.19
ATATACCA	-0.257
ATTAATGG	0.0287
GCTGAGTA	-0.225
TAGGTGGA	-0.229
CCATATAG	-0.205
GGATCATA	0.0161
AAATATAC	-0.0358
CGACCAAA	0.028
CGTATGGA	-0.0318
AACTAGTT	-0.0355
GTTCTCCA	-0.00304
CATAAGAG	-0.125
AGAAGCTC	-0.00659
AACGGTGG	-0.155
AGAGAGGG	-0.216
